According to PubChem BioAssay (NCI):
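Values below derive from 48-hour exposures of cells grown in 96-well plates, with endpoints linearly interpolated between the two concentrations bracketing the appropriate inhibition level. Abbreviation: GI50, concentration required for 50% inhibition of growth. At the TGI there is no net growth.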

Each compound was assayed on NCI-H322M lung (assay: NCI tumour cell line growth inhibition, 48 h).
In the case of `CC1=C2C(=C[C@@](C)(COP(=O)(Oc3ccccc3)Oc3ccccc3)[C@@H]2O)C(=O)[C@@](C)(O)C12CC2`, the GI50 is reported as 0.776 µM and the TGI is reported as 2.43 µM. `Fc1ccc(/C=C/c2nc3ccccc3n3c(-c4ccc(Cl)cc4)nnc23)cc1` was tested, and the GI50 was > 100 µM and the TGI was > 100 µM. With `CN(C)c1nc(NCCNS(=O)(=O)c2ccc(C3=Nc4c(N)nc(N)nc4NC(c4ccccc4)C3)cc2)nc(Nc2ccc(F)cc2)n1` (centres undefined) the GI50 was > 100 µM and the TGI was > 100 µM. In the case of `COc1ccc(C(=O)/C=C/c2cccc(Br)c2)cc1S(N)(=O)=O`, the GI50 is reported as 2.26 µM and the TGI is reported as 8.99 µM. Work on `COc1ccc(N=Nc2c(N)nn3c(-c4cc5cc(Br)ccc5oc4=O)ccnc23)cc1` yielded a GI50 of 4.15 µM and a TGI of 21.8 µM. Compound `COc1ccc(C(=O)/C=C/c2c(F)cccc2Cl)cc1S(N)(=O)=O` has a GI50 of 3.06 µM and a TGI of 13.1 µM. For `O=c1[nH]c2ccc(Cl)cc2cc1CSc1ccc(Nc2nccc(-c3ccc(Cl)cc3)n2)cc1`, the GI50 was 30.9 µM and the TGI was > 100 µM.
